Assay results from the RNAGym collection of RNA variant scans (doi:10.1093/nar/gkz1192).
Read counts are not given, so values of variants with three or more changes are uncertain.

B1: CPEB3 Ribozyme (parent)
chain: UAACAGGGGGCCACAGCAGAAGCGUUCACGUCGCAGCCCCUGUCAGAUUCUGGUGAAUCUGCGAAUUCUGCUGUAUAUCUC

Variants of: B1
Assay: self-cleavage, relative activity (ratio to wild type); higher = more cleavage; in vitro, sequencing
Outline: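 Barcoded CPEB3 ribozyme mutants, produced by rounds of error-prone PCR, self-cleaved while being transcribed with T7 RNA polymerase for 5 hours at 37°C and during a subsequent 15 min DNase I step before EDTA was added. Sequencing of template-switched cDNA on Illumina gave cleaved and total reads, and DNA sequencing assigned barcodes to variants. Each variant's relative activity is its cleaved/total read fraction divided by the unmutated ribozyme's fraction, averaged across three batches. A variant needed a minimum of 5 reads.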

Variant	self-cleavage
A5U G6A U43A U80A	0.56
A5U G6A U51C A57G	0.27
A5U G6A U72A	0.16
A5U G6A U74C	0.78
A5U G6C U67C	0.36
A5U G6U U69G	0.35
A5U G7A A18U U49C G70A	0.19
A5U G7A A35U U41G U48C A57G A65G	0.05
A5U G7C A13U A47G	0.08
A5U G7C A15G A18G U26C A35G	0
A5U G7C A65G U72A	0.3
A5U G7C U31C A35G A64U	0.12
A5U G7U A15U C50U U54C A56U A57G	0.07
A5U G7U A18G U26C	0.11
A5U G7U A20C U41C	0.06
A5U G7U G10C A15U A21G U60C U80C	0.13
A5U G7U U31A A35G C62A U72C	0.1
A5U G7U U31C A35U U41C U60C	0.06
A5U G8A A18G A35U G42C U49A U66C	0.04
A5U G8A A18G U48C U49C U60A	0.23
A5U G8A A28G U43C U80G	0.07

Variant	self-cleavage
A5U G8A A47G U69A U72C U80C	0.31
A5U G8A A57G G61A U72C	0.14
A5U G8A G9A U25A U31C A65U U67G	0.11
A5U G8A G10C A47G U49C A65U U69C	0.07
A5U G8A U43A A45G C71G U78C U80A	0.03
A5U G8A U43C U49C U51C A64G A75G	0
A5U G8C U54C U72C U76C	0.32
A5U G8C U72A	0.16
A5U G8U A21G A65G	0.17
A5U G8U A21G U51G U60C U69A	0.18
A5U G8U C50U U54C A56U A64C C81A	0.03
A5U G8U U43C A45G A47G U69C	0.05
A5U G9A A15G U49C A64G	0.16
A5U G9A A21G A35G U43A U69A	0.34
A5U G9A A21G A35U U43A A56G U78C	0.11
A5U G9A A21G U31C U60C	0.06
A5U G9A A21U U54A U66A	0.1
A5U G9A A35G A45C U48C A56G U78C	0.06
A5U G9A C27A G42A	0.08
A5U G9A U25C U31A A35U	0.06
A5U G9A U41C A45U C62U	0.17

Variant	self-cleavage
A5U G9U A20C U25C U41C A45G A64G	0.06
A5U G9U A28G	0.27
A5U G9U A35U C38U U48C	0.07
A5U G9U A35U C38U U60C	0.15
A5U G9U A57G U66C U80C	0.23
A5U G9U C39U U43C G52C U67C	0.05
A5U G9U U26A U76C	0.38
A5U G9U U66C U72C	0.09
A5U G10A A15G C27A C38A A47G	0.05
A5U G10A A15G U41A U54A U76C U78G	0.05
A5U G10A A15G U54A U80A	0.24
A5U G10A A18G A45U	0.06
A5U G10A A77G	0.1
A5U G10A C68A	0.1
A5U G10A U31C A35G U43C U48C U51A	0.24
A5U G10A U31C U48C U60C A65C U76A	0.15
A5U G10A U43C U51C A57G A75G U80C	0
A5U G10A U48C U54A U60A	0.19
A5U G10A U49C	0.22
A5U G10A U58C U67A U69C U72C	0.09
A5U G10C A13C A28G U69A	0.4

Variant	self-cleavage
A5U G10C A13G U25G U51A U80A	0.05
A5U G10C A45U U51C A56G A64G G70U	0.13
A5U G10U A28G U31A G52A U80A	0.29
A5U G10U A56G A65G	0.13
A5U G16A U25C U51A	0.1
A5U G16A U31C U49C U78C U80C	0.07
A5U G16C A21G C81U	0.16
A5U G19A C40A A56G	0.21
A5U G19A U31C U41C	0.28
A5U G19A U60C U72G	0.06
A5U G19C G24C G30U C34U A35U A64G	0.05
A5U G19U C50A	0.04
A5U G19U U31A G36C U66C U69C	0.15
A5U G22A C38A A64G C71U	0.08
A5U G22C C37U	0.1
A5U G22C U49C U54C G70C	0.18
A5U G22U U48A	0.48
A5U G24A A28G U31A	0.09
A5U G24A U25C U58C U67C	0.07
A5U G24A U26C A28G U60A U80A	0.21
A5U G24A U31C U43G A45G	0.12
